Source: PubChem BioAssay AID1468 (National Center for Advancing Translational Sciences (NCATS), 2008)
“And” between values parts separate entries of the source, which are not always exact repeats. Identical values can stand only once. Out of some 280,000 compounds screened, about 1,100 (0.39%) were called active. The shares of active, inactive and inconclusive entries below differ from those in the screen. Calls follow the shape of the dose curve; as a rule, active = well fitted inhibition curve with a large enough effect; inconclusive = small, poorly fitted or top-dose-only effect, or effect the other way; inactive = flat fitted curve, though single readings scatter. A potency beside an inconclusive call is a rough fit, not a confirmed value.

target: Microtubule-associated protein tau (Homo sapiens) (UniProt P10636); experiment: qHTS for Inhibitors of Tau Fibril Formation, Fluorescence Polarization; details: K18 P301L tau heparin fibrillization, Alexa594 FP, 6 h; series mostly up to 57.7 µM; also: nearly all actives have a fitted effect of over 55% in size
How it was run: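 Heparin (20 uM) drove fibril formation of recombinant tau K18 P301L, 15 uM unlabeled with 0.24 uM Alexa 594 label, for 6 hr at 37 C in 100 mM sodium acetate pH 7. Fluorescence polarization (555/632 nm) read 1 hr after 30 uM ThT.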
Potency is read from the fitted curve at half-maximal effect; tags tell the direction and shape of the fitted curve.

Sequence of UniProt P10636 (P10636 whole entry, looked up): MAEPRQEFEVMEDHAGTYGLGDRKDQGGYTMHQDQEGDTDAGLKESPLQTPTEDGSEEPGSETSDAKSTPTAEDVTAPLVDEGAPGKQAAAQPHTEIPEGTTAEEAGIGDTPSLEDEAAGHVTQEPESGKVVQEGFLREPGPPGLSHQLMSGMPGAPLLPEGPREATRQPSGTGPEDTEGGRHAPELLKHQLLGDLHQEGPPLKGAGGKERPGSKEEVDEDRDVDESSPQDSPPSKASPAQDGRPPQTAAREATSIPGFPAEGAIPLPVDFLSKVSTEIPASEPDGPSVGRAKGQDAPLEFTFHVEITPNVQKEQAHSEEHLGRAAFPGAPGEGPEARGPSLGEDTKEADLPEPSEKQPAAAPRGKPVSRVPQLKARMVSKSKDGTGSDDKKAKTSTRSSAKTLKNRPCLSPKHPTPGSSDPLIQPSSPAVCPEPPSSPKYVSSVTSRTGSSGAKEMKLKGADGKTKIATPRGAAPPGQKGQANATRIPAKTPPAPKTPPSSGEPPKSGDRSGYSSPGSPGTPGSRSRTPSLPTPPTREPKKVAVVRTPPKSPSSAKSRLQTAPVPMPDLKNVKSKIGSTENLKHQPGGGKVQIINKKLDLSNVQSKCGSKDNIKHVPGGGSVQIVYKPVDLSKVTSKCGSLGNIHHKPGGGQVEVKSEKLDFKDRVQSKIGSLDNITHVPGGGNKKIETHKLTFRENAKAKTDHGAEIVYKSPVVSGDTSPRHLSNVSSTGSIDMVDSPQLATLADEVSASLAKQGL

| SMILES | Potency |
| --- | --- |
| CCN1C(=O)c2ccccc2Sc2ccc(NC(=O)c3ccc(C)c(F)c3)cc21 | inconclusive: 20 µM [inhibitor, partial curve] |
| Clc1ccc(-c2nc3ccc(Cl)cn3c2CN2CCOCC2)cc1 | inactive |
| O=C(COc1ccccc1)N1CCN(Cc2c[nH]c3ccccc23)CC1 | inactive |
| Nc1nc2ccc(Cl)cc2c2nc(-c3ccco3)nn12 | inconclusive: 17.8 µM [inhibitor, partial curve] |
| Cc1ccc(C[N+](C)(C)C)o1 | inconclusive: 44.7 µM [inhibitor, single point] |
| CN(C)c1ccc(/C=C2/C(=O)NC(=O)N(Cc3ccco3)C2=O)cc1 | inactive |
| Oc1cc(Cl)ccc1Oc1ccc(Cl)cc1Cl | inconclusive: 0.199 µM [inhibitor, full curve, poor fit] |
| O=C1/C(=C\c2cc3c(cc2Br)OCO3)N2CCC1CC2 | inactive |
| COc1cc(C=C2C(=O)NC(=O)NC2=O)ccc1OCc1ccc([N+](=O)[O-])cc1 | inconclusive: 39.8 µM [inhibitor, single point] |
| COc1cc(/C=C2\C(=O)NC(=O)N(c3ccccc3)C2=O)cc(OC)c1O | inconclusive: 10 µM [inhibitor, partial curve] |
| CCOc1cc(/C=C2/C(=O)NC(=O)N(c3ccc(CC)cc3)C2=O)ccc1OC(=O)c1cccs1 | inconclusive: 25.1 µM [inhibitor, single point] |
| Cc1ccccc1N1C(=O)NC(=O)/C(=C\c2ccc3c(c2)CCCN3Cc2ccccc2)C1=O | inactive |
| O=c1oc(Cl)c(Cl)c2ccccc12 | inconclusive: 3.16 µM [inhibitor, full curve] and inconclusive: 15.8 µM [inhibitor, partial curve] |
| COC(=O)N(c1ccccc1)P1(=S)OCCO1 | inconclusive: 25.1 µM [inhibitor, partial curve] |
| Cc1c(N=Nc2c(O)[nH]c(=S)[nH]c2=O)c(=O)n(-c2ccccc2)n1C | inconclusive: 3.98 µM [inhibitor, single point] |
| CC(C)N1C(=O)/C(=C/C=C/c2ccco2)C(=O)N(Cc2ccco2)C1=O | inconclusive: 15.8 µM [inhibitor, partial curve] |
| CC(C)c1ccc(-n2c(O)c(/C=N/NC(=O)c3ccccc3O)c(=O)[nH]c2=S)cc1 | inconclusive: 2.24 µM [activator, full curve, poor fit] |
| Brc1c(Br)c(Br)c2n[nH]nc2c1Br | inconclusive: 5.62 µM [activator, partial curve] |
| CCOc1cc(C=C2C(=O)NC(=O)NC2=O)cc([N+](=O)[O-])c1O | inconclusive: 3.98 µM [inhibitor, full curve] |
| CC1(C)OC(c2ccccc2)=C/C(=C/C=C2C(=O)NC(=S)NC2=O)O1 | inconclusive: 35.5 µM [inhibitor, partial curve] |
| O=C1C2CCCN2C(c2ccccc2)N1c1ccccn1 (stereo not drawn) | inconclusive: 31.6 µM [inhibitor, partial curve] |

| SMILES | Potency |
| --- | --- |
| C[C@H]1CCC[C@H](O)CCCCCc2cc(O)cc(O)c2C(=O)O1 | inconclusive: 0.891 µM [inhibitor, single point] |
| NC(Cc1cc(O)c(O)cc1O)C(=O)O (stereo not drawn) | inconclusive: 17.8 µM [inhibitor, partial curve] |
| CCC(C)C(=O)OC1C2CC3=C4CC(=O)OC(c5ccoc5)[C@]4(C)CCC3[C@@](C)(C2=O)C(CC(=O)OC)C1(C)C (stereo partly drawn) | inconclusive: 39.8 µM [inhibitor, single point] |
| O=C1NC(=O)N(CCc2ccc(F)cc2)C(=O)/C1=C/c1ccco1 | inconclusive: 39.8 µM [inhibitor, single point] |
| Cc1ccc2c(c1)CC1(CN2C)C(=O)NC(=O)N(CCC2=CCCCC2)C1=O (stereo not drawn) | inconclusive: 39.8 µM [inhibitor, single point] |
| Cn1ncnc2c(=O)n(C)c(=O)nc1-2 | inconclusive: 11.2 µM [inhibitor, partial curve] |
| CN(N=O)c1cc(O)ccc1O | inconclusive: 15.8 µM [inhibitor, partial curve] |
| CN1C[C@H](CO)C=C2c3cccc4[nH]cc(c34)C[C@H]21 | inconclusive: 20 µM [inhibitor, single point] |
| CCOc1ccc(NCc2cccn2-c2nnc(N3CCC(C(=O)NCC(C)c4ccccc4)CC3)s2)cc1 (stereo not drawn) | inconclusive: 5.01 µM [activator, partial curve] |
| O=c1c2ccccc2nc(/C=C/c2ccccc2F)n1-c1cccc(O)c1 | inconclusive: 14.1 µM [inhibitor, partial curve, poor fit] |
| BrC1C(Br)C(Br)C(Br)C(Br)C1Br (stereo not drawn) | inconclusive: 17.8 µM [inhibitor, partial curve, poor fit] |
| COc1ccccc1CN1CCN(Cc2ccc(Cl)cc2)CC1 | inactive |
| CN(C)CC1CSCCC1(O)c1ccccc1 (stereo not drawn) | inactive |
| COc1cccc(C(=O)c2c(N)c(-c3nc(-c4ccccc4)cs3)c3ccccn23)c1 | inconclusive: 28.2 µM [activator, partial curve, poor fit] |
| Cc1cccc(OCC(=O)Nc2cc(-c3ccccc3F)nn2-c2ccccc2)c1 | inconclusive: 17.8 µM [inhibitor, partial curve] |
| CC1CN=C(Nc2ccc(N(C)C)cc2)S1 (stereo not drawn) | inactive |
| CCOC(=O)c1oc2ccc(S(=O)(=O)n3nc(-c4ccc(Cl)cc4)cc3N)cc2c1C | inconclusive: 31.6 µM [inhibitor, partial curve, poor fit] |
| CC1=C(O)C(=O)C=C2C1=CC=C1[C@]2(C)CC[C@@]2(C)C3C[C@](C)(C(=O)O)CC[C@@]3(C)CC[C@@]12C (stereo partly drawn) | inconclusive: 39.8 µM [inhibitor, single point] |
| O=C(O)CC1OCC=C2CN3CCC45C6=CC(=O)C(=O)C([N+](=O)[O-])=C6NC4C1C2CC35 (stereo not drawn) | inconclusive: 3.55 µM [inhibitor, full curve] |
| CCn1c(O)c(C=Nc2ccc(S(N)(=O)=O)cc2)c(=O)n(CC)c1=S | inconclusive: 28.2 µM [inhibitor, single point] |
| O=C(Nc1ccc2c(c1)OCO2)c1cccn(Cc2cccc([N+](=O)[O-])c2)c1=O | inconclusive: 25.1 µM [inhibitor, single point] |

| SMILES | Potency |
| --- | --- |
| COc1ccc(N2C(=O)NC(=O)/C(=C/c3ccc([N+](=O)[O-])s3)C2=O)cc1 | active: 31.6 µM |
| Cc1ccc(NC(=O)CSc2nnc([C@@H](N)Cc3c[nH]c4ccccc34)o2)c(C)c1 | inactive |
| COc1cccc(N2C(=O)NC(=O)/C(=C/c3ccc4c5c(cccc35)CC4)C2=O)c1 | inconclusive: 11.2 µM [inhibitor, partial curve, poor fit] |
| CCCN(CCC)C1CCc2ccc(O)cc2C1 (stereo not drawn) | inconclusive: 7.08 µM [inhibitor, single point] |
| COc1ccc(C(C)=O)cc1CC(C(=O)c1ccc(C)cc1)N(C)C (stereo not drawn) | inactive |
| Oc1cccc(/C=N/NP(=S)(c2ccccc2)c2ccccc2)c1 | inconclusive: 28.2 µM [inhibitor, single point] |
| Cc1cc(/C=C2\C(=O)NC(=O)N(c3ccc(F)cc3)C2=O)c(C)n1-c1ccc(C(=O)O)cc1 | inactive |
| COP(=S)(OC)SCN1C(=O)c2ccccc2C1=O | inconclusive: 22.4 µM [inhibitor, partial curve] |
| C[C@H]1CCCC=CC2C[C@H](O)C[C@@H]2[C@H](O)/C=C\C(=O)O1 (stereo partly drawn) | inactive |
| CCc1ccc(N2C(=O)NC(=O)/C(=C/c3cccn3CCOc3ccc(C)cc3)C2=O)cc1 | inactive |
| O=C1NC(=O)C(=Cc2coc3ccccc3c2=O)C(=O)N1 | inconclusive: 2.82 µM [inhibitor, partial curve] |
| C=C(C=O)CC1CC(O)[C@]2(C)OC3CC4OC5C[C@]6(C)O[C@]7(C)CCC8OC9C[C@]%10(C)OC%11C(C)=CC(=O)OC%11CC%10OC9C[C@@H](C)C8OC7CC6O[C@]5(C)CC5OC5C4OC3CC2O1 (stereo partly drawn) | inconclusive: 25.1 µM [inhibitor, single point] |
| Cc1ccccc1-n1c(/C=C/c2c(C)[nH]c3ccccc23)nc2ccccc2c1=O | inconclusive: 3.55 µM [activator, full curve, poor fit] |
| O=C(NC(=O)c1c(F)cccc1F)Nc1cc(Cl)c(OC(F)(F)C(F)C(F)(F)F)cc1Cl (stereo not drawn) | inconclusive: 1.26 µM [inhibitor, full curve, poor fit] |
| COC(=O)N(c1ccc(OC)cc1)P1(=S)OCCC(C)O1 (stereo not drawn) | inconclusive: 39.8 µM [inhibitor, single point] |
| COc1ccc(-c2cc(C(F)(F)F)n3nc(C(=O)N4CCC5(CC4)OCCO5)cc3n2)cc1OC | inactive |
| N#CC(C#N)=Cc1cccnc1 | inconclusive: 22.4 µM [inhibitor, single point] |
| O=C1/C(=C\c2ccccc2)C[C@@]2(O)[C@H]3Cc4ccc(O)c5c4[C@@]2(CCN3CC2CC2)[C@H]1O5 | inactive |
| COC(=O)C[C@]1(C(=O)OC)CN(C#N)N(c2ccc(Cl)cc2)C12c1ccccc1-c1ccccc12 | inconclusive: 7.94 µM [inhibitor, partial curve] |
| c1cc2cc(c1)C[n+]1ccc(c3ccccc31)NCc1ccc(cc1)CNc1cc[n+](c3ccccc13)C2 | inconclusive: 20 µM [inhibitor, partial curve] |
| CCOP(=O)(OCC)C(NC(=O)Nc1ccc(C)c(Cl)c1)c1ccccc1 (stereo not drawn) | inconclusive: 3.98 µM [inhibitor, partial curve] |
